The values that follow come from paper PMC2276247.

The chains behind the UniProt entries cited, without tags or fusion partners. Where a name states a change or a piece, a line headed by the entry shows the natural chain unless it says otherwise. A line that says so, or that is headed by a name, gives the form on record, which may keep a tag or linker. Residues count along the entry.
UniProt Q14191: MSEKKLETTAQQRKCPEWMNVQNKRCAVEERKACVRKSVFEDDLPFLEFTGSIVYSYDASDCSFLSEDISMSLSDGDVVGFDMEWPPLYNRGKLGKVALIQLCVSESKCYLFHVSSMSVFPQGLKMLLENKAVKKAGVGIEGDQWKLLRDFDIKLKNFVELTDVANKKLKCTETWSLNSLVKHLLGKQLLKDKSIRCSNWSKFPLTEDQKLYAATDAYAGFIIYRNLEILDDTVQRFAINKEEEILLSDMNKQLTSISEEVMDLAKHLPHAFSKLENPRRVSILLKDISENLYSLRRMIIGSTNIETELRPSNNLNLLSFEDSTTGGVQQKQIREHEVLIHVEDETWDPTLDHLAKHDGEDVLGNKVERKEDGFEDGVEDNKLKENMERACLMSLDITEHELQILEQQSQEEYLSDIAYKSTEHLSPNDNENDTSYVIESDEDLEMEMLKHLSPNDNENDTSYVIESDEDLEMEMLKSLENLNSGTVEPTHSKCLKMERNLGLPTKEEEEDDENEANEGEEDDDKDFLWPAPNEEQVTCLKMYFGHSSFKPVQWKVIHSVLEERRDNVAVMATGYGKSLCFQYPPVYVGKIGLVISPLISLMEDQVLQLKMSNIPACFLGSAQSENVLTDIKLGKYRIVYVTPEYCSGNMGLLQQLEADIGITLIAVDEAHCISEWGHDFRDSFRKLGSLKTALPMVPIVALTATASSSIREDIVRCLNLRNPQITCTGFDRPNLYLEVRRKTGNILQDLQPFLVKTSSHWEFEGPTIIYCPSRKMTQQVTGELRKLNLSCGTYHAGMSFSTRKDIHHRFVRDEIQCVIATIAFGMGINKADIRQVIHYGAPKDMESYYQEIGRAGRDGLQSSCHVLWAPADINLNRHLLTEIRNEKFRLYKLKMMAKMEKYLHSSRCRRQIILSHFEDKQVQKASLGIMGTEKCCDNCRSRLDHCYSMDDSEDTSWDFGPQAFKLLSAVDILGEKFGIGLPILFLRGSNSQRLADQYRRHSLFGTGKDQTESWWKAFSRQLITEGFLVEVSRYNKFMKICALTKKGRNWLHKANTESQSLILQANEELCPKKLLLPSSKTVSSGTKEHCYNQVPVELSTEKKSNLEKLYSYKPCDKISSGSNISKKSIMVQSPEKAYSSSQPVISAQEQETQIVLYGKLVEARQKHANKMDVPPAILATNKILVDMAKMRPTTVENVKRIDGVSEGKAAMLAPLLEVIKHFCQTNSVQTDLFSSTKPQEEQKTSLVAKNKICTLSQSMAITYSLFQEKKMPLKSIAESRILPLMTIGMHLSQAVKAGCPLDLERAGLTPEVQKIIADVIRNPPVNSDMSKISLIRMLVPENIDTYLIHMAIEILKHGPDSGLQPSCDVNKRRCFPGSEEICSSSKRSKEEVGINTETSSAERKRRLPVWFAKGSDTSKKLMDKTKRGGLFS
GST-tagged WRN fragment aa 239-499 (acidic domain): residues 239-499 of Q14191
GST-tagged WRN fragment lacking the p300-binding domain (WRN 488-1432): residues 488-1432 of Q14191
GST-WRN helicase domain (aa 500-946): residues 500-946 of Q14191
UniProt Q09472: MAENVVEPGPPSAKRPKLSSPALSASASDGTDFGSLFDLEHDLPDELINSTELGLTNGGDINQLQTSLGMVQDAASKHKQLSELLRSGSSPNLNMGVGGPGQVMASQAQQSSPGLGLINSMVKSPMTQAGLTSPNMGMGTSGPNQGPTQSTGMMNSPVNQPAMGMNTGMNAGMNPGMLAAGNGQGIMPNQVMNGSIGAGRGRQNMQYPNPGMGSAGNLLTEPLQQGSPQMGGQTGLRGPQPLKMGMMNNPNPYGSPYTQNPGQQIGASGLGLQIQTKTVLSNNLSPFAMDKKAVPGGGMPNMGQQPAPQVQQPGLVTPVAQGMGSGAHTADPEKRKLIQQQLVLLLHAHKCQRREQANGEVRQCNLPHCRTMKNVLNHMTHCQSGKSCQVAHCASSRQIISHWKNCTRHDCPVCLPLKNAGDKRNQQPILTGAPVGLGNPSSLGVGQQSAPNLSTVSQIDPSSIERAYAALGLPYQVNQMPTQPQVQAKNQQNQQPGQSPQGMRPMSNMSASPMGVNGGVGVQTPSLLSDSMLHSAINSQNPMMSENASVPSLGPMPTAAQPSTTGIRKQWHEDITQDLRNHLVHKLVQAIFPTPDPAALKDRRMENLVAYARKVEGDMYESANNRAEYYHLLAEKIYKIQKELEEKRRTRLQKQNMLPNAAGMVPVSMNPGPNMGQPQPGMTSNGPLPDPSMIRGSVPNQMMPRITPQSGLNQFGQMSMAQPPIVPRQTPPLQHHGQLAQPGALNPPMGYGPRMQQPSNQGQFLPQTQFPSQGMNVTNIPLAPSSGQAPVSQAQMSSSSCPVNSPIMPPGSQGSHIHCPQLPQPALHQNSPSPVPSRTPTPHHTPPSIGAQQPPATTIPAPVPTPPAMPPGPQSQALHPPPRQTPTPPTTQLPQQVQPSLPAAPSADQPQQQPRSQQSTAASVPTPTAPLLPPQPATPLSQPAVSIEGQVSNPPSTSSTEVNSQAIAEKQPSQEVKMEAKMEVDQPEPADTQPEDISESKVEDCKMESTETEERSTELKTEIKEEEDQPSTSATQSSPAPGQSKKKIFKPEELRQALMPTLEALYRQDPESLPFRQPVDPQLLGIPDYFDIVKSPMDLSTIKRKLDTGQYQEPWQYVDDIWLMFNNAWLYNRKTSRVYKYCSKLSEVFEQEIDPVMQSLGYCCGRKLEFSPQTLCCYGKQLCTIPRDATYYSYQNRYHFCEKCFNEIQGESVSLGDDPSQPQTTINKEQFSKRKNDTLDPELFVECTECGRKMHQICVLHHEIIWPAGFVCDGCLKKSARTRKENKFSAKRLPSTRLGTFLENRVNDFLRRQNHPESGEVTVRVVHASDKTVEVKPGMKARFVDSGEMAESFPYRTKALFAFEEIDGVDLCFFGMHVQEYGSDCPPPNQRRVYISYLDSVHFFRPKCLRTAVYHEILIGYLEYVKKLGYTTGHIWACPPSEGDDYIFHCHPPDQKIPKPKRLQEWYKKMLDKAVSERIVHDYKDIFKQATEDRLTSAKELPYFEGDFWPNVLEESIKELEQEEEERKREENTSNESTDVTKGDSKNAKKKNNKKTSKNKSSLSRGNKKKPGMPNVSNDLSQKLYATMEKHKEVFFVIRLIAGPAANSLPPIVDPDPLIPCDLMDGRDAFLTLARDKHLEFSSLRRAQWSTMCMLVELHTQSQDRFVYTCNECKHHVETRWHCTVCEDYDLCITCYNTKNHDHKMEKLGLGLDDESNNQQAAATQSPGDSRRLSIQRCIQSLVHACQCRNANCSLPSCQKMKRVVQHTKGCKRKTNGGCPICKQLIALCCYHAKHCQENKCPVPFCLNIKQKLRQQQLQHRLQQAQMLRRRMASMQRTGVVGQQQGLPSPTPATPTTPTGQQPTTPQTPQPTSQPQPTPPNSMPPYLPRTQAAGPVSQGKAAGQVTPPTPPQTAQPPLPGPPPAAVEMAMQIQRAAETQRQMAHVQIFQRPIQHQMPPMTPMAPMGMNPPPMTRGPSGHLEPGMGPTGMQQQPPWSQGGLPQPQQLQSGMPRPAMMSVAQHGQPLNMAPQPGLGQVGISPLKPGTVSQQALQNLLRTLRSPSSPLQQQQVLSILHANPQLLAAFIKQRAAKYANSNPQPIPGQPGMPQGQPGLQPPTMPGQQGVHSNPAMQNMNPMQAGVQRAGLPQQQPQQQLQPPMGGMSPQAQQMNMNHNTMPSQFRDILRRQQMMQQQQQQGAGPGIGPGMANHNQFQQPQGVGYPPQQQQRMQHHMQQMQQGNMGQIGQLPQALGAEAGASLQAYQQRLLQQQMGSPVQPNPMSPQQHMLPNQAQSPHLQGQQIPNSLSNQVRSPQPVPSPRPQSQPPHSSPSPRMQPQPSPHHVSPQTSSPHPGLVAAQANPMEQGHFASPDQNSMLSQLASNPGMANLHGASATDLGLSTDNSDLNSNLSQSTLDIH

These are yes or no findings as the source states them, for the method shown. For some assays here: In cells and extracts the contact can be indirect. Some entries that bind do so weakly or less than the wild type.

Test [1] concerns the target GST-tagged WRN fragment aa 239-499 (acidic domain) (human) (UniProt Q14191). Kind of test: far-Western, overlay or dot blot; GST-tagged WRN fragments resolved on SDS-PAGE, transferred to a membrane, blotted with 5 µg/ml p300 protein, probed with anti-p300; both purified.
For test [2], the target named is GST-tagged WRN fragment lacking the p300-binding domain (WRN 488-1432) (human) (UniProt Q14191). The description is as above.
The target of test [3] is GST-WRN helicase domain (aa 500-946) (human) (UniProt Q14191). The test is described as follows: pull-down; GST or GST-WRN fragments prebound to glutathione sepharose beads, incubated with HeLa nuclear extract in the presence of DNase I, 3 h at 4°C; Western with mouse anti-p300; only the target purified.
The target in test [4] is GST-tagged WRN fragment aa 239-499 (acidic domain) (human) (UniProt Q14191). Described as above.
In test [5] the target is Werner protein (WRN), endogenous (human (endogenous in HeLa)) (UniProt Q14191). The test is described as follows: co-IP; HeLa nuclear extracts (250 µg) pre-treated with DNase I, or with or without ethidium bromide (50 µg/ml); rabbit anti-WRN or anti-p300 antibodies, 16 h at 4°C, rProtein G-Agarose; Western analysis.

Turning to “recombinant human p300 (histone acetyltransferase enzyme p300) (from UniProt Q09472 1-2414)”, the binding result is reported as “binds” in test [1] and “no binding (tested: 5 µg/ml)” in test [2].
Regarding “p300, endogenous (from UniProt Q09472 1-2414)”, the binding result in test [3] is “no binding”; in test [4] it was “binds”; in test [5] it was “binds”.
